From PMC4336329 (PLoS ONE, 2015)
Hit rate of the full screen: of about 310,000 compounds, about 14,000 (4.5%) showed an effect of 50% or more. Effects have a minus sign here. The list shows a part of the results.

What follows are compounds tested against human ether-à-go-go-related gene (hERG) potassium channel (human, UniProt Q12809) (assay: primary screen, population patch clamp on CHO cells stably expressing hERG).
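Further: peak tail current of the secondary pulse compared with the same well before compound.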

human ether-à-go-go-related gene (hERG) potassium channel, sequence (Q12809 whole entry, looked up): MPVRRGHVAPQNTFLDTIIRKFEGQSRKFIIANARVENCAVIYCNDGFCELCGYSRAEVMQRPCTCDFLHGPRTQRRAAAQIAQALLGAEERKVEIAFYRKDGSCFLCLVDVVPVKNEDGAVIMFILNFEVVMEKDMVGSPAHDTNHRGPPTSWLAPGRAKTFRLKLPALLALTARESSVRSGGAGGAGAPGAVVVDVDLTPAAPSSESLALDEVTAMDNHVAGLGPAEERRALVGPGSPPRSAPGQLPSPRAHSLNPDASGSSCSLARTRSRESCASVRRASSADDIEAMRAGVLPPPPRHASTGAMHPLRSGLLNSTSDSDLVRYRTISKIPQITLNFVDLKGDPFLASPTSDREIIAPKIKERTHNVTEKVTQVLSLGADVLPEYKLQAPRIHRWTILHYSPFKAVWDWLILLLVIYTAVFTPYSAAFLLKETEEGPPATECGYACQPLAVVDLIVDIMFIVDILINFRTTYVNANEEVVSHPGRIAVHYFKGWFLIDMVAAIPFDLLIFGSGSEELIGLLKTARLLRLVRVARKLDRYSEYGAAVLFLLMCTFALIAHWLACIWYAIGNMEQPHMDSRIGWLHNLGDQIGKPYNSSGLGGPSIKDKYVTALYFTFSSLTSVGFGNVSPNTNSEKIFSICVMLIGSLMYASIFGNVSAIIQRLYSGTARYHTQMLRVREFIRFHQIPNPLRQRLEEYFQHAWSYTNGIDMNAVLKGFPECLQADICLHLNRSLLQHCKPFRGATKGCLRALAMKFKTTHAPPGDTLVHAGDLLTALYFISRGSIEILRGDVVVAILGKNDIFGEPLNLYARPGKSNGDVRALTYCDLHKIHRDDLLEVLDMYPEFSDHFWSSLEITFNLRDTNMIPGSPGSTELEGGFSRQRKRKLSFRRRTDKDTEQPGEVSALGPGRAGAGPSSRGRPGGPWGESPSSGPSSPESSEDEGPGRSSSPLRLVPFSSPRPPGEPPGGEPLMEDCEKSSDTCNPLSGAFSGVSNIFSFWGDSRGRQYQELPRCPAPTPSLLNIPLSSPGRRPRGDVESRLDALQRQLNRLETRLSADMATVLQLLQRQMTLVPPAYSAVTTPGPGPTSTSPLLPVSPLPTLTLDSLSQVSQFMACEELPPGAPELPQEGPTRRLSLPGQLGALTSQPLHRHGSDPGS

| Structure (SMILES) | hERG current change (%, negative = inhibition) at 10uM |
| --- | --- |
| S=C(Nc1ccc2nc(-c3ccccn3)c(-c3ccccn3)nc2c1)N1CCCCCC1 | -15.6% |
| Cc1ccc(C(=O)N/N=C/C=C/c2ccccc2)o1 | -47.7% |
| COC(=O)c1sccc1NC(=O)Nc1cccc(OC)c1 | -21.8% |
| COC(=O)Cn1c(SCc2ccccc2)nc2ccccc21 | -13.8% |
| CC(C)C(=O)Nc1cccc(NC(=O)c2ccc(Cl)cc2Cl)c1 | -34.4% |
| O=C1CSc2ccc(C(=O)NCC(c3ccco3)N3CCCCC3)cc2N1 (stereo not shown) | 2.48% |
| CCN(CC)S(=O)(=O)c1cc(C)ccc1SC | 12.1% |
| O=C(CSc1ccccc1)N/N=C/c1ccccc1O | 14.4% |
| CC(C)c1ccc(C(=O)OC2CCOC2=O)cc1 (stereo not shown) | 8.15% |
| CCOc1cc(CNc2ccc(S(N)(=O)=O)cc2)cc(Cl)c1OC | -6.66% |
| COc1cccc(Cn2nnc3c(=O)[nH]c(C4CCCN(C(=O)c5ccccc5Cl)C4)nc32)c1 (stereo not shown) | -28.6% |
| O=c1oc2ccccc2cc1NCc1ccccc1O | 5.37% |
| O=C(NNc1cc(Cl)ccc1Cl)C1CCC1 | -5.51% |
| Cc1ccc(NC(=O)c2ccc3c(SCC(=O)O)c4c(nc3c2)CCCC4)c(Br)c1 | 2.29% |
| CCn1c(-c2ccc(F)cc2)n[nH]c1=S | 11.4% |
| CCOc1ccccc1CNC(=O)C1CCCN(c2ncnc3c2nc2n3CCCCC2)C1 (stereo not shown) | -51.6% |
| Cc1ccc(N2C(=O)CCC2(C#N)c2ccccc2)cc1 (stereo not shown) | -2.12% |
| CC(=O)N1CCN(c2ccccc2NC(=O)COc2ccc(Cl)cc2Cl)CC1 | -22.3% |
| Cc1ccc(C(=O)C2=C(O)C(=O)N(Cc3ccco3)C2c2ccc(N(C)C)cc2)o1 (stereo not shown) | 8.08% |
| COC(=O)C1=C(c2ccccc2)C[C@@H]2CC[C@H]1N2C(=O)NCc1ccccc1 | 5.68% |
| COc1ccccc1NC(=O)Nc1ccccc1Br | 17.6% |
| COc1ccccc1-n1c(SCC(=O)Nc2cccc(C(=O)O)c2)nnc1-c1ccccc1C | 3.56% |

| Structure (SMILES) | hERG current change (%, negative = inhibition) at 10uM |
| --- | --- |
| CCOC(=O)c1cnc(SCc2nc(N)nc(Nc3ccc(C)cc3)n2)nc1N | -28.8% |
| N#Cc1c(NC(=O)/C=C/c2ccco2)sc2c1CCCC2 | -2.98% |
| CN(C(=S)NC(=O)c1ccc(F)cc1)C1CCCCC1 | 13.5% |
| COc1ccccc1C(C#N)c1cccc(Cl)n1 (stereo not shown) | 0.219% |
| Cc1nn(Cc2ccccc2Cl)c(C)c1NC(=O)c1ccn(C)n1 | 16.1% |
| C=CCN(C(=O)CSc1nc2[nH]ncc2c(=O)n1-c1ccccc1OC)c1ccccc1 | -15% |
| CCOc1cc(C)nc(N2CCC(C(=O)Nc3ccccc3OCC)CC2)n1 | 5.62% |
| CCCCCCC(=O)Oc1ccc(N2C(=O)CCC2=O)cc1 | 14% |
| CCCOc1ccc(C(=O)Nc2ccc3c(c2)OCCO3)cc1 | 11.6% |
| Cc1cc(C)c2sc(N(CCCN(C)C)C(=O)CN3C(=O)c4ccccc4C3=O)nc2c1.Cl | 4.3% |
| O=C(COc1ccccc1[N+](=O)[O-])Nc1ccc2c(c1)CCC2 | 6.68% |
| COc1c(O)ccc(/C=N/NC(=O)c2ccc3c(c2)OCCO3)c1[N+](=O)[O-] | 7.36% |
| Nc1ccc(-n2ccnc2)cc1 | 2.4% |
| CCCC(=O)NC(=S)Nc1ccc(S(=O)(=O)N2CCc3ccccc32)cc1 | 16.9% |
| Cc1cccc(C(=O)Nc2cccc(C(=O)N/N=C/c3cccc(C)n3)c2)c1 | 14.3% |
| CCOc1ccc(N2C(=O)CC(SC(=NC)Nc3ccc4c(c3)OCO4)C2=O)cc1 (stereo not shown) | 13.5% |
| Brc1ccc(-c2nnc(SCCC3OCCCO3)o2)cc1 | -27.2% |
| O=C(Nc1ccc(Br)cc1F)C1CCN(c2nnc(-n3cccc3)s2)CC1 | -0.00282% |
| CC1(C)CC(=O)C(C2C3=C(CC(C)(C)CC3=O)Oc3ccc4ccccc4c32)C(=O)C1 (stereo not shown) | 2.08% |
| Cc1c(C(=O)NCc2c(F)cc(F)cc2F)oc2ccc(S(=O)(=O)N3CCOCC3)cc12 | -13.1% |
| COc1cc(CCC(=O)Nc2ccc(S(=O)(=O)N3CCCC3)cc2)cc(OC)c1OC | -24.2% |
| Cc1ccccc1NC(=O)C(=O)c1cn(C)c2ccccc12 | 6.34% |

| Structure (SMILES) | hERG current change (%, negative = inhibition) at 10uM |
| --- | --- |
| CCCN(CC(=O)Nc1ccccc1C)C(=O)c1nn(CC)c(=O)c2ccccc12 | -15.3% |
| CCO[C@H]1OC(C(=O)N2CCN(C)CC2)=C[C@@H](c2ccc(Br)cc2)[C@@H]1CCCO | -22.4% |
| CN(C)S(=O)(=O)c1ccc(NC(=O)CCCNC(=O)c2ccc(Cl)cc2)cc1 | 5.54% |
| COc1ccc(C2NC(=O)C(C#N)=C(S)N2c2cccc(C)c2)cc1OC (stereo not shown) | 46.2% |
| COCCNC(=O)C1(C)Oc2ccccc2NC1=O (stereo not shown) | 12.4% |
| O=C(CSc1nnc(NC(=O)c2ccccc2F)s1)NCc1ccc(F)cc1 | 8.65% |
| Cc1ccccc1-c1n[nH]c(=S)o1 | 16.9% |
| Cn1c(=O)n(Cc2ccc(Cl)cc2)c2ccccc21 | -8.74% |
| COc1cc(OC)cc(C(=O)NC(C(=O)NNC(=O)c2ccc(C)cc2)C(C)C)c1 (stereo not shown) | -4.26% |
| CCOc1cc(/C=N/NC(=O)c2ccccn2)ccc1OC(=O)c1ccc(F)cc1 | -21.2% |
| O=C(c1cc(-c2ccccc2)nn1CC1CC(c2cccnc2)=NO1)N1CCOCC1 (stereo not shown) | -4.25% |
| CCC(C)n1c(SCC(=O)NC2CCCC2)nc2ccccc2c1=O (stereo not shown) | -16.5% |
| CC(C)C[C@H](NC(=O)N1CCN(c2ccccc2)CC1)C(=O)O | -8.51% |
| C(=N\n1c2ccccc2c2ccccc21)/c1ccccc1 | 11.6% |
| CC(C)(C)NC(=O)C(OC(=O)c1cccs1)c1ccc(F)cc1 (stereo not shown) | 47.2% |
| O=C(Nc1cccc(Cl)c1N1CCOCC1)c1cc([N+](=O)[O-])ccc1N1CCOCC1 | -21.1% |
| O=C(CCn1cccc1)Nc1ccccc1F | 5.37% |
| CCCCNC(=O)CSc1nnc(-c2ccc(S(=O)(=O)N3CCCC3)cc2)n1C | -2.75% |
| NS(=O)(=O)c1cccc(NC(=S)NCc2ccc3c(c2)OCO3)c1 | 17.9% |
| CCC(=O)N1c2ccc(S(=O)(=O)NCCc3ccccc3)cc2CC1C (stereo not shown) | -21.5% |
| CCc1nnc(NC(=O)CCC(=O)Nc2ccccc2)s1 | 26% |
| COc1ccc(COC(=O)Nc2c(SC)nsc2SC)cc1 | 11.5% |

| Structure (SMILES) | hERG current change (%, negative = inhibition) at 10uM |
| --- | --- |
| O=C1CSc2ccc(S(=O)(=O)N3CCN(c4ccccc4F)CC3)cc2N1 | -0.236% |
| CC(C)N1CCC(=NNc2ccc(S(=O)(=O)N3CCOCC3)cc2[N+](=O)[O-])CC1 | -6.15% |
| CSCC[C@H](NC(=O)COc1cc2c(c3oc(=O)c(C)c(C)c13)CCC(C)(C)O2)C(=O)O | 0.569% |
| c1ccc(-c2ccccc2OCCn2cncn2)cc1 | -1.04% |
| Cc1cc(C(F)(F)F)nn1Cc1n[nH]c(=S)n1-c1cccc(Cl)c1 | -10.1% |
| O=C(Cc1ccc(NC2=NC3CS(=O)(=O)CC3S2)cc1)Nc1ccc(F)cc1 (stereo not shown) | 2.9% |
| O=C(O)c1[nH]nc2c1COc1ccccc1-2 | 7.78% |
| O=C(c1ccc(COc2c(F)c(F)cc(F)c2F)o1)N1CCN(c2ccccc2)CC1 | 2.5% |
| Cc1ccc(Nc2nc(N)c([N+](=O)[O-])c(NCCO)n2)cc1 | -24.7% |
| N[C@@H](Cc1ccccc1)C(=O)N1CCC(C(=O)N[C@@H](Cc2c[nH]c3ccccc23)C(=O)O)CC1 | 21.2% |
| COc1cc(NS(=O)(=O)c2ccc(NC(=O)/C(=C\c3ccccc3OC)NC(=O)c3ccccc3)cc2)nc(OC)n1 | 26.5% |
| CCOc1ccc2ccccc2c1/C=N\NC(=O)OC | 12.7% |
| COc1cc(-c2nc3ccccn3c2/N=C/c2ccccc2)ccc1O | -11.6% |
| CCN(CC)CCCn1c2c(c(SCC(=O)Nc3ccc4c(c3)OCO4)nc1=O)CCC2 | -44.6% |
| Cc1nn(-c2ncc(C(F)(F)F)cc2Cl)c(=O)n1-c1cccc(Cl)c1 | 12.3% |
| COc1nc(Oc2ccc(C(=O)O)cc2)nc(Oc2ccc(C(=O)O)cc2)n1 | 5.5% |
| COc1ccc(C2=Nc3ccccc3OC2)cc1 | -2.07% |
| Cc1ccc(S(=O)(=O)NCCC(=O)NCCCSc2ccccc2)cc1 | -31.6% |
| COc1ccc(-c2cnc(SCC(=O)Nc3nc(C(C)(C)C)cs3)n2Cc2ccco2)cc1 | -4.33% |
| O=C(NCc1ccccc1)c1ccc(NC(=O)c2ccco2)cc1 | 5.81% |
| CCN(Cc1ccccc1)c1ccc(/C=N/NC(=S)NC(C)C)cc1 | 2.08% |
| CCN1CCN(C(=O)c2ccc3c(c2)c(C)c(C)n3Cc2ccccc2)CC1 | -25.8% |
